Data published in PubChem BioAssay (NCI).
Values joined by “and” are separate entries in the source; they are usually repeats but may differ in a detail not shown here. Identical values can stand only once.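 Exposure lasted 48 hours, with cells grown in 96-well plates and compounds tested at five concentrations. GI50 is the concentration that inhibits growth by half. Definition used: TGI = concentration required for complete inhibition of growth.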

Tested on: NCI-H322M lung
Assay: growth of human tumour cells (NCI), 48 h

CCCSc1ccc2[nH]c(N3C(=O)/C(=C/c4ccco4)N=C3c3ccccc3)cc2c1
TGI: > 50 µM

CCCNNC(=O)/C=C/c1ccc(CNCCc2c(C)[nH]c3ccccc23)cc1
GI50: 0.0508 µM | TGI: 0.329 µM

COc1ccc(Nc2nc3ccc(C(F)(F)F)cc3nc2-c2ccccc2)cc1OC
TGI: > 100 µM

COC(=O)N(C(=O)OC)C(C(=O)O)C(C)C (stereo not given)
TGI: > 100 µM

CN(C)CCNC(=O)c1cccc2c(NCCN(C)C)c3ccccc3nc12
TGI: 29 µM

CC(=O)OCCCOCn1c(Cc2ccccc2)c(C)c(=O)[nH]c1=O
TGI: > 100 µM

OCc1ccc(-c2ccc(-c3ccc(CO)o3)[se]2)o1
GI50: > 66.9 µM | TGI: > 100 µM

Nc1nc(Cl)c(N)c(NCC2(CO)CC(OCc3ccccc3)C2)n1 (stereo not given)
TGI: > 100 µM

COC(=O)NCCc1[nH]nc2c1C(=O)C=C(N1CCOCC1)C2=O
TGI: > 100 µM

CCc1cc(Cc2cc(Cl)c(NC(=O)C(=O)C3NC(=O)NC3=O)c(CC)c2)cc(Cl)c1NC(=O)C(=O)C1NC(=O)NC1=O (stereo not given)
TGI: > 100 µM

CN[C@H]1C=C[C@@H]2/C=C(C)/C=C/[C@@H](C)[C@H]([C@H](C)[C@H](O)[C@@H](C)NC(C)=O)OC(=O)/C=C/C=C(C)\C=C\[C@]2(C)C1
GI50: 0.196 µM | TGI: > 49 µM

C=C1C(=O)O[C@H]2[C@H]1CC/C(COC(=O)CSCCSCC(=O)OC/C1=C/CC[C@@]3(C)O[C@H]3[C@H]3OC(=O)C(=C)[C@@H]3CC1)=C\CC[C@@]1(C)O[C@@H]21
GI50: 3.71 µM | TGI: 13.4 µM

Nc1ccc(C2=NN(c3ccccc3)C(c3ccc(Cl)cc3)C2)cc1 (stereo not given)
GI50: 7.96 µM | TGI: 22.4 µM

CC(C)OP(=O)(OC(C)C)/C(I)=N/Nc1ccc([N+](=O)[O-])cc1
TGI: > 100 µM

CCSc1sc(=Nc2ccc(N=c3sc(C)c(SC)s3)cc2)sc1-c1ccc(C)cc1
TGI: > 100 µM

O=S(=O)(CCBr)CCBr
TGI: 31.7 µM

CCN(Cc1cccc(F)c1)c1ccc(CO)c(Cl)c1
GI50: 15.8 µM | TGI: 78.4 µM

O=C(c1ccco1)N1CCCN(C(=O)c2ccco2)C1=S
TGI: > 100 µM

C=C1C(=O)O[C@@H]2C[C@@H](C)[C@@H]3C=CC(=O)[C@@]3(C)[C@@H](OC(=O)CC(=O)O[C@H]3[C@@H]4C(=C)C(=O)O[C@@H]4C[C@@H](C)[C@@H]4C=CC(=O)[C@]43C)[C@H]12
TGI: 0.74 µM

O=C1Nc2ccccc2C12CCNC2Cc1ccccc1 (stereo not given)
TGI: > 100 µM

O=C1NC(SSC2=NNC3(C(=O)N2)c2ccccc2-c2ccccc23)=NNC12c1ccccc1-c1ccccc12
TGI: > 10 µM

CCCN(CCCC(NC(C)=O)C(=O)NCc1ccccc1)C(=O)N(CCCl)N=O (stereo not given)
TGI: 56.2 µM

Cn1c(=O)c(C(=O)Nc2nc(C34CC5CC(CC(C5)C3)C4)cs2)c(O)c2ccccc21
TGI: > 100 µM

Cc1nc(C)c(C(=O)NNC(N)=S)cc1C(=O)NNC(N)=S
TGI: > 100 µM

COc1cc2c(c(OC)c1OC)-c1ccc(SC)c(=O)cc1[C@@H](NCc1ccc(C#N)cc1)CC2
TGI: > 100 µM

O=[N+]([O-])C1CC/C(=N/O)c2nonc21 (stereo not given)
TGI: > 10 µM

Cc1ccc(N=N/C(=N\NC(=O)c2ccc(C)cc2)c2ccc(N(CCC#N)CCC#N)cc2C)cc1
TGI: > 100 µM

COC(=O)[C@@H]1[C@@H](c2cccc(Cl)c2)[C@H](C(=O)OC)C2(C[C@@]1(C)O)NCCS2 (stereo not given in full)
TGI: > 100 µM

COc1cc(-c2cc3ncccc3c3nc(N)c4cccnc4c23)cc(OC)c1OC
GI50: 0.472 µM | TGI: 60.1 µM

Cc1ccc(-c2csc(/N=C3\C(=O)Nc4ccccc43)n2)cc1
GI50: 2.04 µM | TGI: 5.69 µM

COC(=O)C1C/C(=C/N(C)C)C(=S)N1 (stereo not given)
TGI: > 100 µM

CCCCc1ccc(Nc2nc3c(ncn3C3CC(O)C(CN=[N+]=[N-])O3)c(=O)[nH]2)cc1 (stereo not given)
TGI: > 100 µM

CC1CCC2(CC1)NN=c1s/c(=C\c3ccc(O)cc3)c(=O)n1N2 (stereo not given)
TGI: > 100 µM

COC(=O)CCC(=O)NC1=C(NCc2ccccc2)C(=O)c2ccccc2C1=O
TGI: > 100 µM

COc1ccc(-c2cn[nH]c2-c2cc(OC)c3c(c2)OCO3)cc1
GI50: 0.704 µM | TGI: 43 µM

O=C(O)CCCCCCC[C@H]1S[C@H]1CCCCCCO
TGI: > 100 µM

CCC[CH2][Sn]1([CH2]CCC)[O]CC(Cc2ccccc2)[O]1 (stereo not given)
GI50: 13.3 µM | TGI: 26 µM

COC(=O)CCc1c[nH]c2ccc(N(CCCl)CCCl)cc12
GI50: 21.2 µM | TGI: > 68.2 µM

CC(C)CC(NC(=O)c1cccc(O)c1O)C(=O)NCc1cc(CNC(=O)C(CC(C)C)NC(=O)c2cccc(O)c2O)cc(CNC(=O)C(CC(C)C)NC(=O)c2cccc(O)c2O)c1 (stereo not given)
TGI: 50.9 µM

Cc1ccc(S(=O)(=O)N/N=C(\c2nc3ccc(Cl)cc3[nH]c2=O)C(O)c2cccc([N+](=O)[O-])c2)cc1 (stereo not given)
TGI: > 100 µM

CC(=O)[O][Ga]([Cl])[O]C(C)=O
GI50: > 100 µM | TGI: > 100 µM

Cc1nc(SCC(=O)Nc2nc(-c3ccc(Cl)cc3)cs2)n(Nc2ccccc2)c1C
GI50: 4.17 µM | TGI: 22.9 µM

COc1ccc(S(=O)(=O)N2CC(C)(C)CN(S(=O)(=O)c3ccc(OC)cc3)C2C(=O)NO)cc1
GI50: > 6.4 µM | TGI: > 20 µM

Nc1ccccc1C(=O)CC1OC(=O)c2ccccc21 (stereo not given)
TGI: > 100 µM

Oc1ccc(-c2nc(-c3cccnc3)c(-c3ccc(Cl)cc3)[nH]2)cc1O
TGI: 59.8 µM

CCCCCCCCOC1C(O)C(O)C(O)C(O)C12CO2 (stereo not given)
TGI: > 100 µM

Cc1cnc(NC(=O)Nc2cc(Br)c(C)cc2OC[C@@H]2CNCCO2)cn1
GI50: 0.62 µM and 1.27 µM | TGI: > 10 µM and 14 µM

CC(=O)O[C@H]1CC[C@@]2(C)C(=CC[C@H]3[C@@H]4CC[C@H](c5cc(C(F)(F)F)n(C(C)=O)n5)[C@@]4(C)CC[C@@H]32)C1
TGI: 23.8 µM

O=C(CO[N+](=O)[O-])Nc1ccc(C(=O)/C=C/c2ccc(Cl)cc2)cc1
GI50: 10.3 µM | TGI: 22.6 µM

COc1ccc2nc3c([N+](=O)[O-])ccc4c3c(c2c1)NCCN4CCO
TGI: 2.84 µM

COc1ccc2c(CCN)c(C(=O)O)[nH]c2c1
TGI: > 100 µM

OC(c1cc2ccccc2o1)c1cc2ccccc2s1 (stereo not given)
TGI: > 10 µM

FC(F)c1nc2ccccc2n1-c1nc(N2CCOCC2)nc(N2CCOCC2)n1
GI50: 0.341 µM and 0.345 µM | TGI: 3.4 µM and 3.56 µM

C#Cc1cccc(N2C(=O)CCC2=O)c1
TGI: 56 µM

Cc1ccc(NC(=O)C2C(=O)N(c3ccc(C)cc3)C(=O)/C2=N\NC(N)=S)cc1 (stereo not given)
TGI: > 100 µM

COC(=O)C(Cc1c(C2Nc3ccccc3C2CC(NC(=O)CNC(C)=O)C(=O)OC)[nH]c2ccccc12)NC(=O)CNC(C)=O (stereo not given)
TGI: > 100 µM

CC(C(=O)c1ccccc1)C(c1ccccc1)N1CCOCC1 (stereo not given)
TGI: > 100 µM

COc1ccc(OC)c(/C(C)=N/NC(N)=S)c1
TGI: > 100 µM

C=C(COC(C)=O)CC(OC(C)=O)c1ccccc1 (stereo not given)
TGI: > 100 µM

CCN(CC)CC1CCCCN1CC(=O)N1c2ccccc2NC(=O)CC1C (stereo not given)
TGI: > 100 µM

COc1cc(C#Cc2ccc(=O)oc2C#Cc2ccccc2)cc(OC)c1OC
GI50: 21.3 µM | TGI: 45.1 µM

O=S(=O)(O)c1cc(O)c2c(N=Cc3ccccc3O)cc(S(=O)(=O)O)cc2c1
TGI: > 100 µM

S=C(NC1=NCC(CN2CCN(c3ccccc3)CC2)O1)Nc1ccccc1 (stereo not given)
TGI: > 100 µM

O=S(=O)(Nc1ccccc1Cl)c1ccc(-c2cnc(C3CC3)o2)cc1
GI50: 2.78 µM | TGI: > 100 µM

CCCN1C(=O)CC(C)N(Cc2ccccc2Cl)C1=S (stereo not given)
TGI: > 100 µM

CC(=O)OCCOCn1c2c(c(=S)[nH]c1=O)CCC2
TGI: > 100 µM

CC(C)/C(Cl)=N\OC(=O)Nc1ccccc1F
TGI: 35.4 µM

CC(=O)[C@@]1(C)CC2(CCN(C)CC2)OC1C (stereo not given in full)
TGI: > 100 µM

Oc1[nH]c2ccccc2c1N=Nc1ccccn1
TGI: > 100 µM

Fc1ccc2[nH]cc(-c3nonc3-c3c[nH]c4ccc(Br)cc34)c2c1
GI50: 2.83 µM | TGI: 12.7 µM
